Assay results from article PMC10668032.
This is one part of the list. At the low end of the ranking, values are background and their order means little.

Molecular target: SIX1 homeodomain (reference allele) (UniProt Q15475)
Assay: universal protein binding microarray
Details: Universal all-10-mer PBM (8x60K, AMADID 030236), 300 nM GST-tagged protein, Alexa Fluor 488 anti-GST; buffer, salt, pH and temperature not stated; high values mean tight binding; most listed sequences are background and not binding sites; double strand, one strand shown

Sequence | binding signal [E-score]
GACGGTAA | -0.0895
CATCTAAA | -0.00811
GTGCCACA | -0.151
CTAAAAAC | -0.172
CGTTAGTC | -0.124
AGTAGACG | 0.114
ATAAGGCA | 0.0508
CACGCACC | -0.167
ATTATGGG | 0.144
AATTAAAA | -0.229
ATTTGCTA | -0.185
CACATCAC | -0.0514
TGCCTCAA | -0.0664
GCGTAGCA | -0.0942
CGGTACAC | 0.138
TTGTACAA | -0.27
CCACATGA | 0.00388
GCCGTATA | 0.283
AGCGTTAT | -0.0413
GCATGTTA | -0.178
ACCCGGGT | 0.377
ACTTCTAA | -0.206

Sequence | binding signal [E-score]
AAAAATAG | -0.215
CAACATGG | 0.0785
TTGTAAAA | -0.208
GTATAGCA | 0.156
ATATTTAC | 0.142
CTAAGCAA | -0.24
CGCGCCGA | -0.0268
ACACGAGT | 0.0536
GAATAGCC | -0.0103
TCCTGCAA | 0.0123
GCGCGAAA | -0.105
CTTCGGGC | 0.00522
GCCAGTCC | -0.129
AACATCAA | -0.237
AGACTACA | -0.0342
ATAGGGTC | 0.146
AACTAATC | 0.124
AGCAAGTG | -0.0967
ACACGTTG | -0.157
GAAAATCA | -0.127
CGAGTCAC | -0.115
GATTCTTA | -0.0677

Sequence | binding signal [E-score]
CGAGCCAA | -0.149
ACACGATC | 0.266
CCCCTTCC | 0.164
CTTATCAC | 0.0821
ACATTGAG | -0.157
ATCTGAAA | 0.0773
CCGCTTCA | 0.133
GAATCTGC | 0.0609
ACCTTTTG | -0.064
TAACGAGA | -0.0272
CCCCAGCA | 0.0232
CAACTAGG | -0.119
CCACTTAC | 0.056
CTACTAAG | -0.119
ACGGATGG | 0.114
ACTTCTCA | -0.00893
CGAGTACA | 0.0544
TCCTGAAA | -0.106
AACCGTCA | -0.0989
CTCCAAAA | -0.224
CCCAACCC | 0.00262
CCTCACTA | -0.00442

Sequence | binding signal [E-score]
TGGCGGAA | -0.149
CAGGTGAC | -0.0701
AGGTAACC | 0.0488
AAAAGATT | -0.119
AGACCACT | -0.0453
ATTCAGGG | 0.0344
TCTGAGCA | -0.139
AGACGAGC | -0.0872
AAAATAGA | 0.127
TCCGGTCA | -0.0102
CCGGTGAG | -0.0169
TATTCCCA | 0.0336
CAGCCATG | -0.0733
CGGAAGCA | -0.101
GAGCAAAC | -0.141
AACAGATA | 0.211
TCGAACAA | -0.0327
CTTCTACC | 0.0973
AACGATCC | 0.333
GCGGTAGA | 0.0037
ATACCCAT | 0.393
ACAGTAAT | -0.0293

Sequence | binding signal [E-score]
CGTGCGAA | -0.134
GATCGTTA | 0.198
CGGGGGAC | -0.164
CTAAACGA | -0.0987
ACCCACAT | 0.0266
TGACCAAA | -0.214
TGAAGGCA | -0.0804
CCCTAGAC | -0.0168
AAGTATAG | -0.016
CGCCAAGC | -0.133
ATCTGCTG | 0.199
AACACCTC | 0.218
ACGCTAGC | -0.201
GGGCGAAA | -0.0965
AATATATG | 0.275
CGTTCACC | -0.158
CCGTCATC | 0.0912
AGTCTCCG | -0.121
CAATGTGG | -0.0168
CCCTTAGC | -0.0694
CGTTGACA | -0.115
CATAACTC | -0.246
